± gives the standard deviation of the averaged measurements. The list shows a part of the results.
Each sequence was assayed on PfAP2-I AP2 domain 3 (GST-tagged) (assay: gcPBM binding intensity (ln(normalized median fluorescence intensity)); higher = stronger DNA binding).
Outline: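 After 1 h on an Agilent 4 × 180k array of primer-extended double-stranded 36-bp intergenic genomic probes and negative controls, bound GST-tagged P. falciparum DNA-binding domains were detected with Alexa488 anti-GST antibody and scanned at 488 nm. The domains had been expressed in E. coli, and binding took place in 1× PBS with 1% milk, 0.2 mg/ml BSA, 0.5% salmon testes DNA and 0.03% Triton X-100. Binding intensity is the highest Masliner-normalised natural-log median intensity across replicate spots of either probe orientation.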

Row | Sequence | gcPBM binding intensity (ln)
1 | TTTAGATAATTCATTACACACATGTATATATATATA [CACACA_site3483] | 9.26 ± 0.25
2 | TAAGGAAGAAGAAAAAGTACTAAAGGTATAAATGCG [XGTACX_site2628] | 8.02 ± 0.52
3 | AACTTGTATATATACACACACACACTGTCTTTTTTT [CACACA_site1963] | 8.17 ± 0.76
4 | AGAACTTAATGCTGCACACAAAAAAAAGGAAAAATA [CACACA_site1353] | 9.03 ± 0.25
5 | TTCTTTAAAATGATATACGTTATAAATATATATATA [XGTACX_negctrl_site256] | 9.14 ± 0.099
6 | AAAAAAAAGTTGTAAGTGCATGTATATAATAATATT | 8.42 ± 0.54
7 | TGATCACATAATAAATGTACAAAAAAAAATTAATAA [XGTACX_site5867] | 7.53 ± 0.64
8 | CAATTTATAAAGAAAACACACATATACATAAATACA [CACACA_site4829] | 7.87 ± 0.41
9 | TATATATAATATAGTGCATGTAAAAAATAAACCATG [TGCATGCA_site932] | 9.375 ± 0.092
10 | TATATATATGGACACACACACATATATATATATTTT [CACACA_site5409] | 8.23 ± 0.67
11 | AAAATTAATATCTTGGTGCATTTTTTAATATTATTA [GTGCAC_site9638] | 9.88 ± 0.13
12 | ACAACTATTCATCATAGTACACGCATGATATATATA [XGTACX_site1539] | 8.16 ± 0.67
13 | TATAAATTAAAACATTGTACATTTTTATTATTATGT [XGTACX_site579] | 7.5 ± 0.54
14 | TATCTTACTTTTTGCACACACTAATATTATTGTTTA [CACACA_site4990] | 9.905 ± 0.007
15 | AAAAAAAAAATATATTGTACAATATTGTAGCTATAT [XGTACX_site7180] | 7.67 ± 0.49
16 | TTCAATAGTAAGTATACACACATATAAATAAATAAA [CACACA_site7295] | 7.83 ± 0.56
17 | TTTTTGTTATTTTTAGTGCAGAAGAATAAATTTTAA | 9.75 ± 0.071
18 | AAAATTTCTTATTTTGTACACACAATAAATATTCAC [CACACA_site8464] | 8.1 ± 0.16
19 | GCAACCTTGTGCAAATGTACAAAAAAAAAAAAAAAA [XGTACX_site679] | 9.29 ± 0.028
20 | TTTTTATTGTTGCTATATTTATAACAATTTATCATA [GTGCAC_negctrl_site75] | 7.88 ± 0.53
21 | ATATTGAAATGTTAATAGAAATATATGGTTAAATTG [XGTACX_negctrl_site212] | 7.53 ± 0.47
22 | ATAATAAGAAAAAAAAAAAAAAAAAAAAAAAAAAAA [TGCATGCA_negctrl_site377] | 8.21 ± 0.95
23 | ATGTATATAAATAGGTGTACATATAAGGTGTTAAGC [XGTACX_site5465] | 8.75 ± 0.69

Row | Sequence | gcPBM binding intensity (ln)
24 | TACACAAACGTTATACGTACACAGGTTTTTCTTTTA [XGTACX_site5427] | 7.78 ± 0.45
25 | TTATATTTATATTTATGTACATATTTTGTGTGAAAA [XGTACX_site2367] | 8.23 ± 0.028
26 | TCTATTTATATGTATTGTACAATATAGATGTGTATT [XGTACX_site5646] | 8.02 ± 0.47
27 | CCTAAATAATATCTATCACACACGCATATATACATA [CACACA_site8838] | 7.8 ± 0.64
28 | TTCTATATATAATATTGTACTTAATTATTTTATTTT [XGTACX_site2701] | 7.7 ± 0.47
29 | AGTGTATATAGAAACATACACACATATTAATTTTAC [CACACA_site3127] | 7.59 ± 0.45
30 | TAGCTGTTCAAAAAATGTACATATATAATATATATA [XGTACX_site5842] | 8.28 ± 0.46
31 | ATATATATGCATTCAAGTACAAAAATATATGTTAAA [XGTACX_site910] | 7.83 ± 0.52
32 | AAATTAAAAATAATTACACACATAGAAAAATTATAT [CACACA_site2275] | 7.92 ± 0.26
33 | GTAATACACAGACACACACACATACACATATTTATA [CACACA_site7313] | 8.27 ± 0.53
34 | ATATAATAACATAACACACACATGTATTTATAGGTG [CACACA_site359] | 7.8 ± 0.45
35 | ACATTATAATATTATTGTACTATATATATAATATAT [XGTACX_site2291] | 7.67 ± 0.42
36 | GATAATCAGAATGGGGTGCAAAGAAAAAAAAAAAAA | 10.7 ± 0.46
37 | AAAAAAAAAAAAAAAACACACATATATATATAATAT [CACACA_site1159] | 8.59 ± 0.58
38 | AAAAAAAAAAAAAAAAGTACATGCCATATATTTTCA [XGTACX_site4580] | 8.64 ± 0.4
39 | GCTAGTTCATAAAATTGTACAAAAAAAAAAAAAAAA [XGTACX_site2223] | 8.12 ± 0.7
40 | AAATAATCTATACACAACGTATAAGAATAATATATG [TGCATGCA_negctrl_site422] | 7.56 ± 0.54
41 | AATAGAAACATTTTACATGTATATATAATTTTTTTT [XGTACX_negctrl_site190] | 7.31 ± 0.51
42 | TAAATAATGTTAAACACACATACCGATATATAATTA [CACACA_site2711] | 7.62 ± 0.37
43 | TATACAGACAGACACACACACATATATATATATATA [CACACA_site1734] | 9.27 ± 0.37
44 | TATATATAAGAAAAAAGTACAGATATATATATATTC [XGTACX_site4788] | 8.06 ± 0.49
45 | AAATTTTCACTTCAAAAACACACGTATTTTTTTCCT [CACACA_site3813] | 8.05 ± 0.73
46 | TGTTATATTATAACTACACACGTATTATGTTATATC [CACACA_site839] | 7.65 ± 0.62

Row | Sequence | gcPBM binding intensity (ln)
47 | TTTTAAGAAAAAAAATGTACACATGAAAATAGTGAA [XGTACX_site5898] | 7.88 ± 0.45
48 | AATTGTTAATGGTACGAACACACATATAAAGATGCA [CACACA_site2043] | 7.84 ± 0.67
49 | AGAATTAAAATAATACGTACACACATGTATAATACA [XGTACX_site1878] | 7.9 ± 0.33
50 | ATTATATCTATAATATGTACATATTATAATATATAT [XGTACX_site3211] | 7.82 ± 0.32
51 | TGTACAATATAAGGAGCACACAAAAATGGATAAATA [CACACA_site8216] | 8.27 ± 0.58
52 | ACCTCTCATATGTTATAAACAAAATGAAAATTTCAT [XGTACX_negctrl_site303] | 8.12 ± 0.42
53 | ATTTTATTTTATTAAGTGCAAAAAAAAAAAAAGAAA | 10.2 ± 0.32
54 | ATATGGCATAAAACATGTACATGTTCATAAATATAT [XGTACX_site1924] | 7.96 ± 0.57
55 | GTGTGATGGTCCAATATACACACTTAAAAAAAAAAA [CACACA_site2426] | 8.02 ± 0.35
56 | TACTGTTATAAATGTGGTACTAATATTATACATATA [XGTACX_site5116] | 7.87 ± 0.32
57 | AATGGTCTTTTCAACACACGTACATAAAAATATTAT [CACACA_site2571] | 8.31 ± 0.33
58 | GTGGAATAATATATATGTACATATTTAAAATATTTA [XGTACX_site3499] | 8.05 ± 0.2
59 | ATTTTTTTACAAAAATGTACACATGAAATATGTAAT [XGTACX_site1372] | 7.8 ± 0.3
60 | TAAAAGTATATATATACACACATAAATATATCTGTA [CACACA_site4537] | 7.44 ± 0.28
61 | TGACAACATAGAGGGGCACACACATATATACATAAA [CACACA_site8550] | 8.25 ± 0.27
62 | TATTATTTTAGAATGCGTACTTATAAAATATTTTAT [XGTACX_site867] | 7.77 ± 0.38
63 | TTATATTAATAATAAAGTACAAAAAATCATATATAA [XGTACX_site799] | 7.7 ± 0.58
64 | TTATTGAACTTTTATAAAACCTGTATTATTATCTCT [CACACA_negctrl_site767] | 7.75 ± 0.69
65 | TATTTCTTATTACATACACACATATACATATATGAC [CACACA_site3201] | 7.99 ± 0.57
66 | TCCAGGCTACACTCTAGTACTCGTAGGGTTATGAGA [XGTACX_site4945] | 7.61 ± 0.52
67 | ATATATATATATATATGTACATATGTTAGGATCAAA [XGTACX_site8626] | 9.49 ± 0.43
68 | ATGACATATAAATATACACACATACGTAAGTATATT [CACACA_site5058] | 7.55 ± 0.4
69 | ACATAAGAATTTTTATGTACTCATAATATTTTATAT [XGTACX_site2398] | 7.71 ± 0.45

Row | Sequence | gcPBM binding intensity (ln)
70 | TACATACTAAAAAAATGTACTTGTATTGTTTTTTTA [XGTACX_site8357] | 7.56 ± 0.41
71 | GAAATATTTGTAAAAACATGCATGGTACTTTTAAAA [TGCATGCA_site6] | 8.06 ± 0.39
72 | TATATATATATATACACATGCAAAAATTTTTAATTT [TGCATGCA_site82] | 9.47 ± 0.11
73 | TTTCTATATGGATTTGCACACATAAAAATGCTTATA [CACACA_site8751] | 9.075 ± 0.049
74 | TTATTTAACGTATTCTCACACATATATATATATAAT [CACACA_site5226] | 8.01 ± 0.51
75 | TCTTTAATGATGTGTACACAAGAAAACATTGTTAAG [CACACA_site5299] | 8.13 ± 0.59
76 | TAGAAGCATCATTTTACACACATGCAAATGTAAAAT [CACACA_site1893] | 8.12 ± 0.77
77 | AAAAATAAGAGCGTAGCACACACGCATTTTATAAAT [CACACA_site8147] | 7.5 ± 0.61
78 | CCTACAATTCGTAATACACACACATATATATATATA [CACACA_site9251] | 9.29 ± 0.25
79 | ACATTATATAAAATATGTACACATAAATAAATAAAT [XGTACX_site5031] | 8.02 ± 0.72
80 | TCATATTATAAAAAATGTACAAGGAAAAAATATATA [XGTACX_site337] | 7.99 ± 0.67
81 | TAATTTTGTAAAAATTGTACATATTTATCTTTTTAT [XGTACX_site4305] | 7.55 ± 0.26
82 | AAAAAAAAAAAAAACACACACATATAATATATTTAA [CACACA_site1337] | 8.11 ± 0.49
83 | AAAAAATTCAAAATCACACATAAAAAAGGACACATA [CACACA_site5972] | 7.92 ± 0.28
84 | CTTGGGCGTCATAATGAACACACAATTATATTATGA [CACACA_site9297] | 7.51 ± 0.36
85 | TTATTACCATATTTTGTACACACATCTTTATCTCAA [CACACA_site9054] | 8.23 ± 0.64
86 | ATATATACAAATCCTTTTTTCCAAGATGGAAAAAGA [CACACA_negctrl_site382] | 7.58 ± 0.53
87 | AAAATAATAAATAACGCATGCGTGTGCATTTTATTC [TGCATGCA_site898] | 9.46 ± 0.042
88 | ATTATATAATCTATATGTACATATATATATATATAT [XGTACX_site4970] | 9.51 ± 0.56
89 | TATATATAAGCGCATGCACACGCAAAGGTATATAAA [CACACA_site8107] | 7.95 ± 0.49
